# Assay results published in PubChem BioAssay AID1461 (National Center for Advancing Translational Sciences (NCATS), 2008).
# Screen size: about 220,000 compounds; about 2,300 (1%) were called active. The inconclusive results got no clear call from the source; some entries with a clear call stand among them for comparison. Calls follow the shape of the dose curve; as a rule, active = well fitted inhibition curve with a large enough effect; inconclusive = small, poorly fitted or top-dose-only effect, or effect the other way; inactive = no such curve, though single readings can be large or run the other way. Potencies beside an inconclusive call are fits to weak or partial responses and may not hold up.
# Target: Neuropeptide S receptor (Homo sapiens) (UniProt Q6W5P4)
# Sequence of UniProt Q6W5P4 (Q6W5P4 whole entry, looked up): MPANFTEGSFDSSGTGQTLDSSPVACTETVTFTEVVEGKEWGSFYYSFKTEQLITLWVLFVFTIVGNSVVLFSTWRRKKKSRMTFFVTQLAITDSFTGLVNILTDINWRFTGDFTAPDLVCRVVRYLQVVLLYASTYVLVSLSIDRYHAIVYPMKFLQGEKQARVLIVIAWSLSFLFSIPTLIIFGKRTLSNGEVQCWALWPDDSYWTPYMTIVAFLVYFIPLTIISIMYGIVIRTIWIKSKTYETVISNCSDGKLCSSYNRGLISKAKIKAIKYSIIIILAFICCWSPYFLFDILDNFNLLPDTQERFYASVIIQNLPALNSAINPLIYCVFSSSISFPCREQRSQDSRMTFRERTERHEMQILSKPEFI
# Experiment: qHTS Assay for Antagonists of the Neuropeptide S Receptor: cAMP Signal Transduction; also: nearly all actives have a fitted effect of over 50% in size
# Settings: CHO-NPSR cells, cAMP TR-FRET, antagonist mode; activity change, negative = inhibition: at 38.3 µM (top of the series) unless noted
# % is scaled to controls: 0 for no effect and ±100 for the full control effect; potency is read from the fitted curve at half-maximal effect; tags tell the direction and shape of the fitted curve.
SMILES,Potency,"activity change, negative = inhibition"
Cc1ccc(N/C(N)=N/c2nc(C)cc(N3CCCCC3)n2)c(C)c1,active: 10 µM,–
S=C(NCc1ccccc1)NCc1ccc2c(c1)OCO2,–,inactive: -0.0477%
CC(=O)c1ccc(C(=O)N2CCCC(CCC(=O)N(C)CCc3ccccn3)C2)s1 (centres undefined),–,inactive: 0.872%
Brc1ccc(-c2csc(Nc3nc(-c4ccc(Br)cc4)cs3)n2)cc1,"inconclusive: 25.1 µM [activator, single point]",–
COc1ccc(O)c(C(=O)/C=C/c2cc3ccccc3o2)c1,–,inactive: -23.1%
CCOC(=O)Cn1cnc2c(C#N)c3n(c2c1=O)CCCCC3,"inconclusive: 12.6 µM [activator, single point]",–
COCCn1nnnc1C(c1cc2ccc(C)cc2[nH]c1=O)N(Cc1ccco1)Cc1cccs1 (centres undefined),"inconclusive: 12.6 µM [inhibitor, single point]",–
COc1cc(C2C(C#N)=C(N)Oc3cc(N(C)C)ccc32)cc2c1OCO2 (centres undefined),"inconclusive: 1 µM [activator, full curve]",–
Cc1[nH]c2ccccc2c1C(=O)CCl,"inconclusive: 25.1 µM [activator, single point]",–
COc1cc2c(=O)n(CCC(=O)NCC3CCCO3)c(=O)n(CC(=O)c3ccc(Cl)cc3)c2cc1OC (centres undefined),–,inactive: -13.3%
Nc1nc(-c2ccccc2)c(-c2ccc([N+](=O)[O-])cc2)s1,"inconclusive: 3.16 µM [inhibitor, single point]",–
Cc1cccn2c(=O)c(C=NCCO)c(Nc3ccc(Cl)cc3)nc12,"inconclusive: 10 µM [inhibitor, single point]",–
CCN(CC)C(=O)CSc1nc2cc3c(cc2c(=O)n1CCCCCC(=O)NCc1ccc(OC)cc1)OCO3,–,inactive: -58.7%
CCn1ccc(C(=O)Nc2ccc(Cl)cn2)n1,–,inactive: -0.125% [at 46.1 µM]
COc1ccc(-c2c(C#N)c(N)nc3c2CCc2ccccc2-3)cc1OC,"inconclusive: 12.6 µM [inhibitor, partial curve]",–
Cc1ccccc1-n1c(SCC(N)=O)nc2sc(-c3ccccc3)cc2c1=O,"inconclusive: 12.6 µM [inhibitor, partial curve]",–
COc1ccc(OC)c(NC(=O)CSc2nnc(CNc3ccc(C)cc3C)o2)c1,"inconclusive: 0.794 µM [inhibitor, partial curve]",–
O=C(NC(=O)c1ccc(Cl)cc1)OC1CCCCC1,–,inactive: 2.22%
COc1ccccc1CNC(=O)C1CCC(CNc2c(N3CCCCC3)c(=O)c2=O)CC1 (centres undefined),–,inactive: 11.2%
N=C1C=CC=C2C1=NC1(CCCCC1)N2O,"inconclusive: 10 µM [inhibitor, partial curve, poor fit]",–
Cc1oc(=O)c(NC(=O)c2cccc(Cl)c2)cc1C(=O)c1ccccc1,active: 7.94 µM,–
S=c1[nH]nc(-c2ccc(Cl)cc2Cl)n1-c1ccc2c(c1)OCCO2,"inconclusive: 12.6 µM [inhibitor, single point]",–
COc1cc2c(-c3ccccc3O)nc3c(c(C)nn3-c3ccccc3)c2cc1OC,"inconclusive: 10 µM [inhibitor, single point]",–
CC1CCCN(C(C(=O)NC2CCCCC2)c2cc3c(cc2[N+](=O)[O-])OCO3)C1 (centres undefined),"inconclusive: 25.1 µM [inhibitor, single point]",–
O=S(=O)(c1ccccc1)c1nc(-c2ccco2)oc1NCc1ccco1,–,inactive: -5.84% [at 46.1 µM]

SMILES,Potency,"activity change, negative = inhibition"
O=[N+]([O-])c1ccc(Nc2c3ccccc3nc3ccccc23)cc1,active: 6.31 µM,–
Cc1ccc(Cn2c(SCC(=O)N3CC(=O)Nc4ccccc43)nc3ccccc3c2=O)cc1,"inconclusive: 10 µM [inhibitor, partial curve]",–
O=C(C1c2ccccc2Oc2ccccc21)N1CCN(c2ccc(Cl)cc2)CC1,"inconclusive: 10 µM [inhibitor, partial curve]",–
Cn1c(=N)n(CC(=O)c2ccc(Br)s2)c2ccccc21,"inconclusive: 12.6 µM [inhibitor, single point]",–
COc1ccc(C(c2c[nH]c3ccccc23)c2c[nH]c3ccccc23)cc1O,"inconclusive: 15.8 µM [inhibitor, single point]",–
Oc1ccccc1N=Nc1nc(-c2ccccc2)c(-c2ccccc2)[nH]1,"inconclusive: 12.6 µM [inhibitor, single point]",–
Cc1ccc(-c2nc3cccnc3o2)cc1NC(=O)COc1ccc(Cl)cc1C,"inconclusive: 25.1 µM [inhibitor, single point]",–
O=C1CC(N2CCN(c3ccccc3Cl)CC2)C(=O)N1c1ccc(F)cc1 (centres undefined),"inconclusive: 12.6 µM [inhibitor, single point]",–
Cn1ncc(S(=O)(=O)Cc2ccccc2)c(Cl)c1=O,"inconclusive: 12.6 µM [activator, single point]",–
COc1ccc2cc(CN(CC3CCCO3)S(=O)(=O)c3ccccc3Cl)c(=O)[nH]c2c1 (centres undefined),"inconclusive: 10 µM [inhibitor, single point]",–
CCC(C)[C@@H](NC(=O)OC(C)(C)C)c1nnc(S(=O)(=O)Cc2cccc(C)c2)o1 (some centres undefined),"inconclusive: 12.6 µM [inhibitor, single point]",–
COc1cccc(/C=C2\SC(=S)N(C(C(=O)O)c3ccccc3)C2=O)c1OC (centres undefined),"inconclusive: 10 µM [activator, partial curve]",–
Nc1nonc1C(=O)NCCN=Cc1cc(Cc2ccccc2)cc(Br)c1O,"inconclusive: 20 µM [inhibitor, single point]",–
CN(C)c1ccc2c(c1)OC(N)=C(C#N)C2c1cccc(F)c1 (centres undefined),"inconclusive: 3.98 µM [activator, full curve]",–
CCc1nnc(NC(=O)c2cccs2)s1,"inconclusive: 12.6 µM [inhibitor, single point]",–
COc1cccc(-n2nnnc2S(C)(=O)=O)c1,active: 10 µM,–
CCOc1cc(/C=C2\C(=O)NN(c3ccccc3)C2=O)cc([N+](=O)[O-])c1O,"inconclusive: 10 µM [inhibitor, single point]",–
CS(=O)(=O)N(CC(=O)N1CCc2ccccc2C1)Cc1ccccc1,–,inactive: -8.8% [at 46.1 µM]
Cn1c(=O)c2c(nc(CN3CCN(c4ccccc4)CC3)n2Cc2c(F)cccc2Cl)n(C)c1=O,"inconclusive: 10 µM [inhibitor, partial curve, poor fit]",–
Fc1ccc(Nc2ccc(-c3ccc(F)cc3)nn2)cc1,–,inactive: -3.26%
O=C(NCc1cccnc1)c1cc(Sc2cccc(Cl)c2)nc2ccccc12,–,inactive: -3.17%
CSCCC(=O)Nc1nc(-c2ccccn2)cs1,–,inactive: 0.84%
CCOC(=O)c1sc(NC(=O)Nc2ccccc2Cl)cc1C,–,inactive: -44.6%
Oc1ccc(-c2nnc(SCC3CCCCC3)o2)cc1,"inconclusive: 20 µM [inhibitor, partial curve, poor fit]",–
Cc1cccn2c(=O)c(/C=C(\C#N)S(=O)(=O)c3ccccc3)c(N3CCCCC3)nc12,"inconclusive: 12.6 µM [inhibitor, single point]",–

SMILES,Potency,"activity change, negative = inhibition"
Cc1nn(-c2ccccc2)c(Cl)c1C1C(C#N)=C(N)OC2=C1C(=O)CCC2 (centres undefined),–,inconclusive: -31.7% [inhibitor] [at 46.1 µM]
CCn1cc(C(=O)NCC2CCCO2)c(=O)c2cc(S(=O)(=O)N3CCCCCC3)ccc21 (centres undefined),active: 3.16 µM,–
CC1=C(C(=O)Nc2ccccc2)C2(CCCCC2)C(C(N)=O)C(=S)N1 (centres undefined),–,inactive: 5.67%
CC(=O)Oc1ccc(-n2c(=O)c3ccccc3c3ccccc3c2=O)cc1,"inconclusive: 12.6 µM [inhibitor, single point]",–
COc1ccc(-c2nc(NC(=O)CSc3nnc(C)s3)ns2)cc1,–,inactive: -22.2% [at 46.1 µM]
COc1ccc(/C(C)=N/NC(=O)c2ccc(N(C)C)cc2)cc1,–,inactive: -9.85% [at 46.1 µM]
Cc1onc(-c2ccc(Cl)cc2)c1-c1ccnn1S(=O)(=O)c1cccc(C(F)(F)F)c1,"inconclusive: 10 µM [activator, partial curve]",–
C1=C(CCNC2=NCCCCC2)CCCC1,–,inactive: -10.9% [at 46.1 µM]
O=S(=O)(c1ccc(Oc2ccc3oc4ccccc4c3c2)nc1)N1CCCC1,"inconclusive: 25.1 µM [activator, single point]",–
O=c1[nH]c2ccc(NC(=S)Nc3ccc(F)cc3)cc2[nH]1,–,inactive: -5.44%
CN1c2cccc3cccc(c23)N(C)C1(C)C,–,inactive: -20.6% [at 46.1 µM]
COc1ccc(-c2cc(C(=O)N3CCN(c4ccccc4)CC3)c3ccccc3n2)cc1OC,"inconclusive: 10 µM [inhibitor, partial curve]",–
O=C(c1ccccc1)N1CCN(c2ccc(Cl)cc2)CC1,–,inactive: -6.52% [at 46.1 µM]
O=C1c2ccc(Br)cc2C(=O)N1c1ccc(Cc2ccncc2)cc1,"inconclusive: 25.1 µM [inhibitor, single point]",–
Cc1cc(C)c(C#N)c(OCC(=O)c2ccc(Br)cc2)n1,–,inactive: -12.1% [at 46.1 µM]
O=C(Nc1ccccc1N1CCCCC1)c1ccc(F)cc1,"inconclusive: 20 µM [inhibitor, single point]",–
CN(C)c1ccc(/C=N\NC(=O)c2csnn2)cc1,"inconclusive: 10 µM [inhibitor, single point]",–
COC(=O)c1cc2oc(C)cc2n1CC(=O)N(C)c1ccccc1,"inconclusive: 0.398 µM [inhibitor, single point]",–
O=Cc1c(Sc2ccccc2)nc2ccccn2c1=O,"inconclusive: 12.6 µM [inhibitor, single point]",–
CN(C(=O)CSc1cc(C(=O)c2nccn2C)c2ccccc2n1)c1ccccc1,"inconclusive: 3.98 µM [inhibitor, full curve, poor fit]",–
COCc1cc(C)nc(NCCc2ccccc2)c1C#N,–,inactive: -24.4% [at 46.1 µM]
CCOc1ccccc1C(=O)Nc1nncs1,–,inactive: -2.97% [at 46.1 µM]
O=C(CCn1c(=S)oc2ccccc21)N1CCN(c2ccc(F)cc2)CC1,–,inactive: -2.13%
O=C(Nc1cccc(C(F)(F)F)c1)c1cccnc1NCCc1ccccc1,"inconclusive: 25.1 µM [inhibitor, single point]",–
